Measurements: PubChem BioAssay AID1508624 (National Center for Advancing Translational Sciences (NCATS), 2021)
The whole screen tested about 48,000 compounds, of which about 120 (0.25%) were called active. Another 4% or so got no clear call; they are omitted. Calls follow the shape of the dose curve; as a rule, active = well fitted activation curve with a large enough effect; inconclusive = small, poorly fitted or top-dose-only effect, or another doubt; inactive = no such curve, though single readings can be large or run the other way. The list shows a part of the results.

test: Primary qHTS for Identification of Small Molecule Activators of Huntingtin-Antisense Promoter Activity; settings: HEK293 HTT-AS promoter firefly luciferase reporter (activity 0% = vehicle and -100% = no light), 24 h; series mostly up to 57.5 µM; activity change, positive = activation: at the top concentration; also: nearly all actives have a fitted effect of over 55% in size
How it was run: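 HEK293 Fluc reporter, 2,500 cells/well, 24 h pre-culture; cpds up to 57.5 uM final, 24 h 37 degrees C; Dual-Glo, 10 min RT; normalized vehicle = 0%, zero RLU = -100%.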

Activity change, positive = activation, inactive:
Cc1ccc(C2CCN(C(=O)c3cnn(-c4ccccc4Cl)c3C3CCN(C(=O)OC(C)(C)C)CC3)C2)cc1 (stereo not given) -42.3%
COc1cc(OC)c(C2C=C(C(=O)O)Nc3ncnn32)cc1OC (stereo not given) -14.8%
O=C(Cn1c(-c2cccs2)cc2cc(Cl)ccc21)NCc1ccccc1 -26.7%
CCCSc1nc(=O)c2c(n1C)NC(=O)CC2c1cccc(F)c1F (stereo not given) -7.21%
CCc1ccccc1NC(=O)CN(Cc1ccccc1)S(=O)(=O)c1ccc2nc(C)sc2c1 -15.1%
CCOC(=O)c1c(NC(=O)CCCOc2ccc(C(C)(C)C)cc2)sc2c1CCC2 2.43%
COc1ccc(N2CCN(C(=O)Cc3c(C(=O)O)c(C)cn3C)CC2)cc1 -17.2%
COc1ccc(-n2nc3ccc(NC(=O)COc4ccc(C)c(C)c4)cc3n2)cc1 -8.76%
Cc1cccc(NC(=O)Cn2cc(S(=O)(=O)c3ccc(F)cc3)c(=O)c3cc4c(cc32)OCO4)c1 -12.5%
CC(C)Oc1ccc(C(=O)N[C@H](CNC(=O)CN(C)C)Cc2ccc(-c3cn4cccc([C@H](C)O)c4n3)cc2)cc1Cl -32.1%
Cc1ccc(-c2c(C(=O)N3CCN(c4cccc(C)c4C)CC3)oc(=O)c3ccccc23)cc1 -37.3%
CC(=O)c1cccc(NC(=O)c2cnn(-c3cccc(C)c3)c2-n2cccc2)c1 -2.29%
CCC(=O)N1CCc2cc(Br)cc(S(=O)(=O)NCCc3ccccc3Cl)c21 -35.6%
Cc1ccc(C)c(NC(=O)N2CC=C(c3c[nH]c4ccccc34)CC2)c1 -12%
Cc1cc(C)c(NC(=O)CSc2nc(C)cc(C)c2C#N)c(C)c1 -8.68%
O=C(CN1Cc2ccccc2C1=O)Nc1cc(F)ccc1F 2.54%
Cc1cccc(N(C)C(=O)C(Cc2ccccc2)NS(=O)(=O)c2cccc3nsnc23)c1 (stereo not given) -17.2%
COc1ccc(Nc2ccc3cc(S(=O)(=O)N4CCCC4)ccc3n2)cc1Cl -31.1%
COc1ccccc1OCC(=O)N(Cc1ccc(N(C)C)cc1)CC1CCCO1 (stereo not given) -11.3%
Cc1ccc2oc(=O)c3cnn(CC(=O)N(C)c4ccc(F)cc4)c3c2c1 -5.3%
CC(=O)c1ccc(NC(=O)C2CCN(S(=O)(=O)c3ccc4c(c3)CCCN4C(=O)C3CCC3)CC2)cc1 9.37%
CCOc1ccc(-n2c(SCC(=O)Nc3ccccc3OC)nc3c(oc4ccccc43)c2=O)cc1 -16.8%
Cc1noc(/C=C/c2ccco2)c1S(=O)(=O)N1CCC(C(=O)Nc2ccc(F)cc2F)CC1 -22.7%
Cc1ccc(OCC(=O)Nc2ccc3nc(SCc4ccccc4)sc3c2)cc1 -2.85%
CCCCN(Cc1ccccc1)C(=O)CN(C)S(=O)(=O)c1ccc2c(c1)c(=O)n(C)c(=O)n2C -9.06%
